# Laboratory results published in PubChem BioAssay (Tox21).
# Inconclusive means that the source gave no clear call. Such entries were picked first, then a sample of the others. For part of these data: Where the call is inconclusive, the potency comes from a doubtful curve fit. Activity calls are given as the source filed them. Unless noted, the call rests on the fitted dose curve; in most records, active means well fitted curve in the direction sought with a large enough effect in the repeat runs; inconclusive means weak or mixed curves; inactive means no such curve, though single readings can be large; an effect the other way counts as inactive or inconclusive.
# Experiments:
# [1] = biological target: Luciferin 4-monooxygenase (Photinus pyralis) (UniProt P08659); assay: qHTS assay to identify small molecule inhibitors of firefly luciferase (AID 1224835); further: nearly all actives have a fitted effect of over 25% in size; further: potency means the concentration at half of the fitted maximal effect
# In short: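 Biochemical qHTS: compounds run as interplate titrations against purified firefly enzyme, with D-luciferin and ATP each at its KM concentration. Light output recorded by CCD imaging.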
# [2] = qHTS assay to identify small molecule agonists of H2AX (AID 1224845; active means well fitted activation curve with a large enough effect in the signal ratio in the repeat runs, not every such curve was filed as active; inconclusive means weak or mixed curves; the % refers to the signal ratio; further: potency means the concentration at half of the fitted maximal effect; on activation (H2AX phosphorylation): on the % scale 0 is the no-effect control and ±100 the full control effect); conditions: CHO-K1 phospho-H2AX Ser139 HTRF, 3 h; activation (H2AX phosphorylation): at 154 µM (top of the series) unless noted
# In short: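 Wild-type CHO-K1 cells, plated overnight, exposed 3hr at 37C to 15 concentrations (0.76% DMSO final). Lysed, then HTRF anti-pH2AX (S139) cryptate and anti-H2AX-d2 antibodies, 24 hr room temperature; 665/620 nm emission read.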
# [3] = qHTS assay to identify small molecule agonists of H2AX - cell viability counter screen (AID 1224847; calls by dose curve; further: nearly all actives have a fitted effect of over 30% in size; further: potency means the concentration at half of the fitted maximal effect)
# In short: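 Counter-screen for viability: CellTiter-Glo ATP luminescence read after 3 h compound treatment (15-point titration, 0.76% DMSO final) of CHO-K1 cells at 37C, with 30 min room-temperature reagent incubation.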
# [4] = qHTS assay to identify small molecule agonists of the constitutive androstane receptor (CAR) signaling pathway - cell viability counter screen (AID 1224836); further: nearly all actives have a fitted effect of over 45% in size; further: potency means the concentration at half of the fitted maximal effect
# In short: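 Cell viability multiplexed with the CAR agonist screen: CellTiter-Fluor fluorescence after 23 hr at 37 C. HepG2-CYP2B6-hCAR cells got compounds at 15 concentrations with PK11195 at 0.75 uM final.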
# [5] = qHTS assay to identify small molecule agonists of the hypoxia (HIF-1) signaling pathway (AID 1224846; active means well fitted activation curve with a large enough effect in the signal ratio in the repeat runs, not every such curve was filed as active; inconclusive means weak or mixed curves; the % refers to the signal ratio; further: potency means the concentration at half of the fitted maximal effect; on activation: on the % scale 0 is the no-effect control and ±100 the full control effect); conditions: HRE-bla ME-180 cells, beta-lactamase ratio, 17 h; activation: at 76.8 µM (top of the series) unless noted
# In short: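 HRE-bla ME-180 beta-lactamase reporter cells in medium with 0.5% dialyzed FBS, pre-incubated 5 h then exposed to compounds 17 h at 37C, 5% CO2; reporter induction read with CCF4-AM FRET substrate.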
# [6] = A CellTox Green Cytotoxicity Assay to monitor cytotoxicity in HEK293 cells - 0 hour (AID 1224869); further: potency means the concentration at half of the fitted maximal effect; nearly all actives have a fitted effect of over 50% in size
# In short: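 HEK293 cells, 600/well, were preincubated 5 hours and then exposed to compounds at 37 C for up to 40 hours. A cell-impermeant cyanine dye staining dead-cell DNA was read by fluorescence at 0, 8, 16, 24, 32 and 40 h time points.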
# [7] = qHTS assay to identify small molecule agonists of the hypoxia (HIF-1) signaling pathway - cell viability counter screen (AID 1224844; calls by dose curve; further: potency means the concentration at half of the fitted maximal effect; nearly all actives have a fitted effect of over 50% in size)
# In short: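 HRE-bla ME-180 cells, 2,000/well in 0.5% dialyzed FBS medium, treated 17 h at 37C with compounds. Viability read in the same wells as the bla reporter, by CellTiter-Glo luminescence after 30 min at room temperature.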
# [8] = qHTS RealTime-Glo MT Cell Viability Assay in HEK293 cells - 32 hour (AID 1224868); further: top concentration of the series differs between compounds; on the % scale 0 is the no-effect control and ±100 the full control effect; nearly all actives have a fitted effect of over 50% in size
# In short: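 HEK293 cells were seeded at 600 cells/well together with NanoLuc luciferase and cell-permeant prosubstrate, preincubated 5 h at 37 C/5% CO2, then given compound in DMSO by pintool. Luminescence from viable-cell prosubstrate reduction was read repeatedly over 40 h.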
# [9] = qHTS assay to identify small molecule antagonists of the constitutive androstane receptor (CAR) signaling pathway - cell viability counter screen (AID 1224837); further: potency means the concentration at half of the fitted maximal effect; nearly all actives have a fitted effect of over 45% in size
# In short: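 HepG2 cells stably carrying hCAR and CYP2B6-2.2kb reporter, stimulated with 50 nM CITCO and compounds at 15 concentrations for 23 h at 37 C. Viability measured by CellTiter-Fluor fluorescence.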
# [10] = biological target: Nuclear receptor subfamily 1 group I member 3 (Homo sapiens) (UniProt Q14994); assay: qHTS assay to identify small molecule antagonists of the constitutive androstane receptor (CAR) signaling pathway (AID 1224838); further: potency means the concentration at half of the fitted maximal effect; nearly all actives have a fitted effect of over 40% in size
# In short: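 HepG2 cells stably carrying hCAR and a CYP2B6-2.2kb luciferase reporter, seeded 4 hrs before compound (15 concentrations). Stimulated with 50 nM CITCO for 24 hr at 37 C. ONE-Glo luminescence read after 30 min at room temperature.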
# [11] = qHTS assay to identify small molecule antagonists of the estrogen related receptor signaling pathway with the pleiotropic PPARgamma coactivator (PGC) from Tox21 10K library (AID 1224841; call rule not given here; further: potency means the concentration at half of the fitted maximal effect; actives are mostly falling curves and most rising ones were filed inactive; nearly all actives have a fitted effect of over 50% in size)
# In short: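 PGC/ERR cell line, 2,000 cells/well, pre-incubated 6 hours at 37 C, then exposed to compounds for 18 hours at 37 C; luciferase read with One-Glo luminescence after 30 min at room temperature.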
# [12] = qHTS assay to identify small molecule agonists of the estrogen related receptor signaling pathway with the pleiotropic PPARgamma coactivator (PGC) from Tox21 10K library (AID 1224842); further: potency means the concentration at half of the fitted maximal effect; nearly all actives have a fitted effect of over 15% in size
# In short: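 PGC/ERR reporter cell line, 2,000 cells per well, incubated 6 h at 37 C before 23 nL compound in DMSO was added. After 18 h at 37 C, One-Glo luminescence read following 30 min at room temperature.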
# [13] = biological target: Thyrotropin receptor (Homo sapiens) (UniProt P16473); assay: qHTS assay to identify small molecule agonists of the thyroid stimulating hormone receptor (TSHR) signaling pathway (AID 1224843; calls by dose curve; further: on the % scale 0 is the no-effect control and ±100 the full control effect; nearly all actives have a fitted effect of over 45% in size); conditions: TSHR-HEK293 cells, cAMP HTRF, agonist mode, 30 min; activation: at 92.4 µM (top of the series) unless noted
# In short: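 TSHR-HEK293 cells in agonist mode, 30 min room-temperature step, then cAMP measured by competitive HTRF (cAMP-d2 with anti-cAMP cryptate) after 1 h at room temperature. Tested at 15 concentrations in triplicate.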
# [14] = qHTS assay to identify small molecule agonists of the estrogen related receptor (ERR) signaling pathway from Tox21 library (AID 1224849; calls by dose curve; further: on the % scale 0 is the no-effect control and ±100 the full control effect; nearly all actives have a fitted effect of over 15% in size); conditions: ERR reporter cell line, ONE-Glo luciferase, 18 h; at 92.4 µM (top of the series) unless noted
# In short: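 ERR reporter cells (NTP line) pre-incubated 6 hours at 37 C, then exposed to compounds for 18 hours at 37 C. ONE-Glo luciferase luminescence was read after 30 minutes at room temperature.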
# [15] = qHTS RealTime-Glo MT Cell Viability Assay in HepG2 cells - 24 hour (AID 1224867)
# In short: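 HepG2 cells were seeded at 600 cells/well together with NanoLuc luciferase and a cell-permeant prosubstrate, preincubated 5 h at 37 C/5% CO2, then pin-dosed with compounds in DMSO. Nonlytic luminescence from viable cells was read at each time point.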
# Tags describe the fitted curve by direction and shape or compound fluorescence and quenching.
# UniProt P08659, sequence (P08659 whole entry, looked up): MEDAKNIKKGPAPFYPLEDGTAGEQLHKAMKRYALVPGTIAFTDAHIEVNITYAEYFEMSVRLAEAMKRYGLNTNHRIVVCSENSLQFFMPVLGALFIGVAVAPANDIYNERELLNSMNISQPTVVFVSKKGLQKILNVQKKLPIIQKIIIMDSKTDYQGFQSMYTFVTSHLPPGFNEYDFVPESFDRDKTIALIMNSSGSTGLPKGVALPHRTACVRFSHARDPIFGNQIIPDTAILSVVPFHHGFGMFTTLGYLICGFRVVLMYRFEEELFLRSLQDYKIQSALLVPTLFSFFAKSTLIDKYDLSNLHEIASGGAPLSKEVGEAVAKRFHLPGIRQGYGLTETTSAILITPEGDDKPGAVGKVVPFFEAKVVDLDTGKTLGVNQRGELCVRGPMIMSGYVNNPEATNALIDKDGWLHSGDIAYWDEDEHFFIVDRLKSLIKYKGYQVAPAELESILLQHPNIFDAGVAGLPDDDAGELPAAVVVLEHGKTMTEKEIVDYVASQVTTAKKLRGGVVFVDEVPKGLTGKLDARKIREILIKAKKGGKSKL
# UniProt P16473, sequence (P16473 whole entry, looked up): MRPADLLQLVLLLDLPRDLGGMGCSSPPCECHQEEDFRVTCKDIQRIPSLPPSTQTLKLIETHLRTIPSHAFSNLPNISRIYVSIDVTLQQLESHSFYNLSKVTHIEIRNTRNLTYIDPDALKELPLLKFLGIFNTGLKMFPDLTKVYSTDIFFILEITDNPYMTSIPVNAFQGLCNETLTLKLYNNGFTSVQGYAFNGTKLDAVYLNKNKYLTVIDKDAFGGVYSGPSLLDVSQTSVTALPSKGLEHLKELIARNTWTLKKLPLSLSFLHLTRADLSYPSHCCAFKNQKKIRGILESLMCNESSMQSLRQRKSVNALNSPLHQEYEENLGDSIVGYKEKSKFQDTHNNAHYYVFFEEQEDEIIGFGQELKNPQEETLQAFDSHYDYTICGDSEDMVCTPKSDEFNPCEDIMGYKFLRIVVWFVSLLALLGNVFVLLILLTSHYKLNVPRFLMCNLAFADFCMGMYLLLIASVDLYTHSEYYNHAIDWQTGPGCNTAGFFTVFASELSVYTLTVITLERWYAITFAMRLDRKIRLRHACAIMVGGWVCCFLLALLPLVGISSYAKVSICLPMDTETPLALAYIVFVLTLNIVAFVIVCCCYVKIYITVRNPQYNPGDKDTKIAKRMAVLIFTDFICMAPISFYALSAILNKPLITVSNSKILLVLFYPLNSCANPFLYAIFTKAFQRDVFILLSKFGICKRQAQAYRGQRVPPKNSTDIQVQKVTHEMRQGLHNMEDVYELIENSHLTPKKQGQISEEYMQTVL
# UniProt Q14994, sequence (Q14994 whole entry, looked up): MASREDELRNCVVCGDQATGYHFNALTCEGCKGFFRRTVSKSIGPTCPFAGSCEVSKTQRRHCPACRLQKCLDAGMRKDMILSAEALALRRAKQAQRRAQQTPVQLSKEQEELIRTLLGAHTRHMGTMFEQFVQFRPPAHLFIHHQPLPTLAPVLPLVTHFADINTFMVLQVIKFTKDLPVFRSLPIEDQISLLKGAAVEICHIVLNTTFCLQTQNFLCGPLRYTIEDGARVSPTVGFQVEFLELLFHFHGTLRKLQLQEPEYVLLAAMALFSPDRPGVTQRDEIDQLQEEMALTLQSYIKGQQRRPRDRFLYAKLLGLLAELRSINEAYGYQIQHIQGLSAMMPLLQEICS
smiles,measurement,setting,value
CC/C=C\CCOC(=O)c1ccccc1,Potency,[1],active: 7.1 µM
same,activation (H2AX phosphorylation),[2],inconclusive: 6.02%
CC(C(=O)O)c1ccc(-c2ccccc2)c(F)c1 (configuration not stated),Potency,[1],"inconclusive: 63.3 µM [inhibitor, partial curve]"
same,Potency,[3],"inconclusive: 0.898 µM [cytotoxic, single point]"
NS(=O)(=O)c1cc2c(cc1Cl)NC(C1CC3C=CC1C3)NS2(=O)=O (configuration not stated),Potency,[4],inactive
CN(C)c1ccc(/C=C/c2ccc([N+](=O)[O-])cc2)cc1,Potency,[1],"inconclusive: 0.101 µM [inhibitor, full curve]"
same,activation,[5],inactive: -1.48% [at 7.01 µM]
same,Potency,[6],"inconclusive: 0.555 µM [activator, single point]"
CC(C)(CC(=O)O)C(=O)O,Potency,[4],inactive
CCC(C)c1ccccc1O (configuration not stated),Potency,[1],inactive
same,Potency,[3],inactive
CCCCCC/C=C\CCCCCCCC(=O)O,Potency,[1],"inconclusive: 89.4 µM [inhibitor, single point]"
same,Potency,[7],"inconclusive: 54.9 µM [cytotoxic, single point]"
same,Potency,[5],inconclusive: 61.6 µM
same,Potency,[8],inactive
C=CC(=O)OCCOCCOC(=O)C=C,Potency,[4],"inconclusive: 68.9 µM [cytotoxic, single point]"
same,Potency,[9],active: 61.4 µM
same,Potency,[10],"inconclusive: 68.9 µM [inhibitor, single point]"
same,Potency,[11],"inconclusive: 77.3 µM [falling, single point]"
same,Potency,[12],active: 9.73 µM
same,activation,[13],inconclusive: 33.4%
same,Potency,[7],"inconclusive: 12.4 µM [cytotoxic, single point]"
same,Potency,[2],active: 56.9 µM
same,Potency,[5],"inconclusive: 31 µM [falling, partial curve]"
same,Potency,[3],"inconclusive: 63.9 µM [rising, partial curve]"
same,"activity change, positive = activation",[14],active: -74.8%
same,Potency,[15],"inconclusive: 49.2 µM [falling, single point]"
